# The list shows a part of the results. Values were computed here from the reads of four pooled replicates and scatter widely.
# Biological target: T1, Pho4 (S. cerevisiae) (UniProt P07270)
# T1 sequence: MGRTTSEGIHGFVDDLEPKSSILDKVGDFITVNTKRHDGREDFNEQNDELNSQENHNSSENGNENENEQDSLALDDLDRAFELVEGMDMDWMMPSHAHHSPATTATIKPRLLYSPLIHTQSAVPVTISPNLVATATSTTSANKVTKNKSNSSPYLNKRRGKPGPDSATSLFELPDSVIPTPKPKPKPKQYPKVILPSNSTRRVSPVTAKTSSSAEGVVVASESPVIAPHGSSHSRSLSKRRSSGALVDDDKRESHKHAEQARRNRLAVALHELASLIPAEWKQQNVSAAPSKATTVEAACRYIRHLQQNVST
# Test: relative binding free energy (BET-seq); higher = weaker binding
# Conditions: reference: library average
row,Sequence,relative binding free energy
1,TGACTCACGTGGGGTG,0.07 kcal/mol
2,GTTTTCACGTGCGTAT,0.28 kcal/mol
3,GTTATCACGTGGCTTT,0.31 kcal/mol
4,TAATTCACGTGGTACA,0.31 kcal/mol
5,ACTGTCACGTGTTTTT,0.1 kcal/mol
6,GGCGACACGTGGTGCG,0.05 kcal/mol
7,TTTTACACGTGATATT,0.32 kcal/mol
8,GATGGCACGTGCAAGG,0.01 kcal/mol
9,GGTAGCACGTGAGCTG,0.18 kcal/mol
10,ATGGGCACGTGGGAGA,-0.12 kcal/mol
11,TATTTCACGTGATCAT,0.2 kcal/mol
12,GGGCTCACGTGCTTGT,0.25 kcal/mol
13,TGGGGCACGTGAAGAG,0.12 kcal/mol
14,CGAGTCACGTGATGGG,0.24 kcal/mol
15,CTAGTCACGTGTTGTA,0.07 kcal/mol
16,TGTAGCACGTGGGCGA,-0.36 kcal/mol
17,GGTAGCACGTGGTACG,-0.1 kcal/mol
18,TATATCACGTGTTGCT,0.01 kcal/mol
19,GGCCGCACGTGGCGGG,-0.14 kcal/mol
20,CAGGACACGTGGGGCG,-0.02 kcal/mol
21,GATAGCACGTGTGTTA,0.03 kcal/mol
22,ACGGCCACGTGAGGGT,0.06 kcal/mol
23,TTTATCACGTGCGGTC,0.12 kcal/mol
24,TCTCGCACGTGATGGT,0.09 kcal/mol
25,GCATGCACGTGTTGTG,-0.02 kcal/mol
26,CTGGGCACGTGGGTCG,-0.3 kcal/mol

row,Sequence,relative binding free energy
1,TTCGGCACGTGCGGTA,-0.19 kcal/mol
2,GGGGTCACGTGCGCGT,0.03 kcal/mol
3,CGCTGCACGTGGAGGG,-0.1 kcal/mol
4,GTACGCACGTGGGTAG,-0.33 kcal/mol
5,AGTGTCACGTGCGGTC,0.04 kcal/mol
6,TTGGCCACGTGTTGCT,-0.02 kcal/mol
7,TTATTCACGTGTGTAC,0.2 kcal/mol
8,AGCGTCACGTGGTGCG,-0.09 kcal/mol
9,TCAGTCACGTGGTTGT,-0.02 kcal/mol
10,ATCATCACGTGATGGT,0.3 kcal/mol
11,TTTATCACGTGTAAAT,0.19 kcal/mol
12,GGAGGCACGTGTATGT,0.04 kcal/mol
13,TATATCACGTGTTAGG,0.11 kcal/mol
14,CATTGCACGTGGGTGT,-0.01 kcal/mol
15,GTTCCCACGTGGTAGG,-0.02 kcal/mol
16,GTTAGCACGTGGGAGC,-0.04 kcal/mol
17,CGTGACACGTGGTGGC,-0.19 kcal/mol
18,GGCGTCACGTGGCGTA,0.13 kcal/mol
19,TCGGGCACGTGTGGTT,-0.05 kcal/mol
20,AGTTGCACGTGAAGGA,0.08 kcal/mol
21,GATTCCACGTGAAGGG,0.29 kcal/mol
22,TCGGTCACGTGAATTT,0.38 kcal/mol
23,TATGGCACGTGTGGTG,-0.04 kcal/mol
24,GTCTACACGTGGGGCG,-0.06 kcal/mol
25,CGGGCCACGTGTGTGG,-0.12 kcal/mol
26,ATATACACGTGTGTTT,-0.06 kcal/mol

row,Sequence,relative binding free energy
1,AACGTCACGTGTCGGG,0.11 kcal/mol
2,TGGGACACGTGGGCAA,-0.01 kcal/mol
3,ATCTGCACGTGGTGGC,-0.01 kcal/mol
4,TTGAGCACGTGGGGAG,-0.13 kcal/mol
5,GTTGCCACGTGCAGGT,0 kcal/mol
6,TCTCTCACGTGTAGTT,0.22 kcal/mol
7,TATTCCACGTGGTAGG,-0.08 kcal/mol
8,TTGCTCACGTGAGCGT,0.3 kcal/mol
9,TGTTACACGTGCGGAT,0.05 kcal/mol
10,GTTAGCACGTGTATTT,0.04 kcal/mol
11,ATGTGCACGTGCATGA,-0.09 kcal/mol
12,AGTGTCACGTGCTTAG,-0.1 kcal/mol
13,GTCGTCACGTGGTAAG,0.01 kcal/mol
14,AAGGACACGTGTTGGT,0.03 kcal/mol
15,GTGGCCACGTGGGTGA,-0.08 kcal/mol
16,GAGTGCACGTGGTAGT,0.06 kcal/mol
17,GGGATCACGTGGTGCA,0.15 kcal/mol
18,ATGTACACGTGTTAGA,0.12 kcal/mol
19,AGGGGCACGTGCGTAA,-0.26 kcal/mol
20,CAGGTCACGTGGGCGG,0 kcal/mol
21,AGTTGCACGTGATAAT,0.09 kcal/mol
22,GACGTCACGTGAGAGG,0.48 kcal/mol
23,TCGCGCACGTGGAGGG,-0.28 kcal/mol
24,AGGGACACGTGGCATG,-0.13 kcal/mol
25,TTGAGCACGTGGGCTT,-0.18 kcal/mol
26,TAGGTCACGTGTTAAA,0.2 kcal/mol

row,Sequence,relative binding free energy
1,CGGCTCACGTGTGGGC,0.14 kcal/mol
2,TTTTACACGTGGTAAT,0.1 kcal/mol
3,TGGAGCACGTGGAGGC,-0.15 kcal/mol
4,TGGTTCACGTGTAGGG,0.31 kcal/mol
5,TGCGTCACGTGTGGTT,0.16 kcal/mol
6,CTTGGCACGTGTTGGC,-0.11 kcal/mol
7,GGATTCACGTGCCGGG,0.23 kcal/mol
8,GCGTTCACGTGATTTG,0.17 kcal/mol
9,TGCGGCACGTGCAGGA,0.03 kcal/mol
10,CTTGTCACGTGAAGTG,0.11 kcal/mol
11,CTAGGCACGTGGGGAA,-0.14 kcal/mol
12,AGAGGCACGTGTGATG,-0.05 kcal/mol
13,AAATGCACGTGTGGCG,0.01 kcal/mol
14,TTGGTCACGTGTATGG,0.12 kcal/mol
15,TAGGACACGTGGTTTG,-0.01 kcal/mol
16,CGGGGCACGTGTTTTG,-0.18 kcal/mol
17,TGGTTCACGTGAAGGG,0.39 kcal/mol
18,CGTAGCACGTGGGAGT,-0.18 kcal/mol
19,ATTGTCACGTGTTCTA,0.12 kcal/mol
20,TTTGGCACGTGAGGTG,0.22 kcal/mol
21,AAACGCACGTGTGGTT,0.03 kcal/mol
22,TGTATCACGTGAGAAA,0.45 kcal/mol
23,GGTTCCACGTGTGTTG,0.06 kcal/mol
24,TTAAACACGTGCGGTT,-0.01 kcal/mol
25,CAAAGCACGTGGTGTG,-0.1 kcal/mol
26,AGGTGCACGTGTGTTG,-0.03 kcal/mol

row,Sequence,relative binding free energy
1,TGTGCCACGTGGGGCT,-0.19 kcal/mol
2,CGTGGCACGTGGCTTG,-0.18 kcal/mol
3,TTGATCACGTGTCTTA,0.09 kcal/mol
4,GGAATCACGTGAGGGC,0.21 kcal/mol
5,GAGTGCACGTGGGTGA,-0.08 kcal/mol
6,AGTGGCACGTGTTATA,-0.02 kcal/mol
7,GATTCCACGTGATGTG,0.43 kcal/mol
8,TAATACACGTGTATGT,0.04 kcal/mol
9,ATGGCCACGTGGCTTG,-0.16 kcal/mol
10,TACGTCACGTGCAGTT,0.17 kcal/mol
11,TGGAACACGTGGTGGA,-0.03 kcal/mol
12,GTTACCACGTGTTGAT,0.06 kcal/mol
13,CTGTGCACGTGTTCGG,0.06 kcal/mol
14,AGAGGCACGTGGAAGG,-0.09 kcal/mol
15,ATTATCACGTGGGCGC,0.03 kcal/mol
16,TACTTCACGTGTTTGT,0.15 kcal/mol
17,AGTTGCACGTGCAGTG,0.16 kcal/mol
18,TATAGCACGTGTTAGT,0 kcal/mol
19,AGGAGCACGTGGTGCT,-0.12 kcal/mol
20,GATTCCACGTGGGTAT,0.04 kcal/mol
21,ATAGGCACGTGGAGTT,-0.16 kcal/mol
22,TGTGTCACGTGGTGGT,0.05 kcal/mol
23,GAAGGCACGTGTGGTC,0 kcal/mol
24,ATTCTCACGTGGTGGA,0.23 kcal/mol
25,GGCATCACGTGTCGGT,0.2 kcal/mol
26,TGCTTCACGTGGGCTT,0.15 kcal/mol

row,Sequence,relative binding free energy
1,TACGACACGTGCGGGG,0.02 kcal/mol
2,GGTTCCACGTGGTCTG,-0.06 kcal/mol
3,CGCGGCACGTGTGGGT,-0.16 kcal/mol
4,TAGAGCACGTGTTAGT,-0.05 kcal/mol
5,GAAATCACGTGGCGTG,0.08 kcal/mol
6,GTGGGCACGTGGAGGA,-0.14 kcal/mol
7,TGGATCACGTGTGATC,0.28 kcal/mol
8,GATACCACGTGTGTGT,-0.01 kcal/mol
9,GGTAGCACGTGTGGTA,0.06 kcal/mol
10,GTTGACACGTGAATAT,0.2 kcal/mol
11,GGCGGCACGTGTTAGT,-0.1 kcal/mol
12,TAGGTCACGTGCAGTG,0.02 kcal/mol
13,GGAGGCACGTGGTGTT,-0.07 kcal/mol
14,TCATGCACGTGATTGG,0.16 kcal/mol
15,AGTGGCACGTGCAGAT,-0.15 kcal/mol
16,AGTTCCACGTGATTGG,0.31 kcal/mol
17,GGTTTCACGTGTCGCA,0.37 kcal/mol
18,GTTGGCACGTGATAAA,0.03 kcal/mol
19,CGGGTCACGTGTACTT,0.23 kcal/mol
20,GGATGCACGTGCAGTG,-0.05 kcal/mol
21,GTGGTCACGTGAAATA,0.28 kcal/mol
22,GATGGCACGTGGGGTG,-0.12 kcal/mol
23,GCGGACACGTGGGGTG,-0.03 kcal/mol
24,GTATGCACGTGGTTTA,-0.04 kcal/mol
25,TATCGCACGTGGTATT,-0.1 kcal/mol
26,GGAGTCACGTGGGAAA,0.08 kcal/mol

row,Sequence,relative binding free energy
1,TGAGGCACGTGTACAG,0 kcal/mol
2,ACTGACACGTGGAGGG,-0.06 kcal/mol
3,GCATGCACGTGGGGGC,-0.06 kcal/mol
4,TGACTCACGTGATTGT,0.13 kcal/mol
5,TTTGTCACGTGACGGC,0.24 kcal/mol
6,TAATTCACGTGTTTTT,0.23 kcal/mol
7,CTTGGCACGTGGTGCT,-0.11 kcal/mol
8,AGTTGCACGTGTGAAT,0.11 kcal/mol
9,GAGGTCACGTGGCTTG,0.05 kcal/mol
10,AGGCACACGTGGGTCG,-0.09 kcal/mol
11,TGGCGCACGTGGTGCG,-0.16 kcal/mol
12,TAGTCCACGTGGGTTA,-0.02 kcal/mol
13,TTAGACACGTGTTATA,-0.04 kcal/mol
14,CAGTGCACGTGAGCGG,0.17 kcal/mol
15,GTGAACACGTGGCGTA,0.02 kcal/mol
16,TGTTTCACGTGGTGCC,0.31 kcal/mol
17,AGTGTCACGTGGCCTG,-0.04 kcal/mol
18,TTAAGCACGTGAAGTA,0.17 kcal/mol
19,TGGACCACGTGGGGCG,-0.16 kcal/mol
20,GTATGCACGTGGTTCG,-0.03 kcal/mol
21,TTCGTCACGTGATGAT,0.23 kcal/mol
22,TTGTACACGTGTTGTC,0.07 kcal/mol
23,TGTTTCACGTGCAGTT,0.2 kcal/mol
24,TGGAGCACGTGTAAGC,0.07 kcal/mol
25,ATAGACACGTGTTTTA,-0.01 kcal/mol
26,TAAGACACGTGGGAGA,0.01 kcal/mol

row,Sequence,relative binding free energy
1,AGATTCACGTGAGCTG,0.43 kcal/mol
2,TTGATCACGTGCTTAG,0.04 kcal/mol
3,TGGGCCACGTGGTGCT,-0.27 kcal/mol
4,GCAGTCACGTGTGTGG,0.08 kcal/mol
5,GGGATCACGTGGTGAT,0.22 kcal/mol
6,AGTTTCACGTGTGGGC,0.37 kcal/mol
7,GCGGGCACGTGGGTGC,-0.2 kcal/mol
8,GTTTACACGTGGTGAG,0.24 kcal/mol
9,TTAATCACGTGAACGT,0.49 kcal/mol
10,TGATGCACGTGTTAAA,0.01 kcal/mol
11,GTGGGCACGTGTGGGA,-0.06 kcal/mol
12,AGGGGCACGTGTGTTA,-0.26 kcal/mol
13,GTGCACACGTGTGTTA,0.06 kcal/mol
14,AAGTTCACGTGGTGCG,0.13 kcal/mol
15,AAGATCACGTGGCGGT,0.15 kcal/mol
16,TTAGGCACGTGTAAAA,0.04 kcal/mol
17,GGGGCCACGTGAGTTA,0.22 kcal/mol
18,TTCAACACGTGTTAGT,0.07 kcal/mol
19,ATAAGCACGTGTGGGG,-0.04 kcal/mol
20,TACGGCACGTGATGTT,0.09 kcal/mol
21,TATAGCACGTGTATCG,0.09 kcal/mol
22,TTAATCACGTGGTCTA,0.03 kcal/mol
23,AGGGGCACGTGGGCTG,-0.31 kcal/mol
24,TTTTTCACGTGAGAAT,0.31 kcal/mol
25,GTAGTCACGTGAGGTT,0.32 kcal/mol
26,GTAGGCACGTGTTATC,0.02 kcal/mol

row,Sequence,relative binding free energy
1,CAGCTCACGTGTAGGG,0.32 kcal/mol
2,TTTTGCACGTGAGTCG,0.18 kcal/mol
3,GGTGTCACGTGATAAT,0.28 kcal/mol
4,TAGGGCACGTGTTGCT,-0.14 kcal/mol
5,CTTAACACGTGAGTGT,0.14 kcal/mol
6,AAGTACACGTGGTTGG,-0.01 kcal/mol
7,AGGTTCACGTGGTTGA,0.28 kcal/mol
8,GGTGTCACGTGCGGGA,0.13 kcal/mol
9,GGCGTCACGTGTTTTT,0.3 kcal/mol
10,TCTTTCACGTGCGGTT,0.3 kcal/mol
11,CTTGGCACGTGTTGGT,-0.05 kcal/mol
12,TGTAACACGTGTCTTT,0 kcal/mol
13,CGCGTCACGTGGGCTT,0.08 kcal/mol
14,TTAATCACGTGGCTTT,0.17 kcal/mol
15,CGGGTCACGTGGGGAC,-0.09 kcal/mol
16,CGGGTCACGTGGCGTG,-0.02 kcal/mol
17,TTTTTCACGTGGGAAT,0.29 kcal/mol
18,TTGGGCACGTGTAATA,-0.08 kcal/mol
19,AGGATCACGTGGGTGT,0 kcal/mol
20,TTTGTCACGTGTTGTA,0.18 kcal/mol
21,TATAGCACGTGAGTAA,0.15 kcal/mol
22,TATGGCACGTGTATTG,-0.09 kcal/mol

# — the BET-seq Pho4 binding data (Le et al. 2018)
